# Results as given in PubChem BioAssay AID1159614 (National Center for Advancing Translational Sciences (NCATS), 2016).
# Screen size: about 45,000 compounds; about 65 (0.1%) were called active. Calls follow the shape of the dose curve; as a rule, active = well fitted activation curve with a large enough effect; inconclusive = small, poorly fitted or top-dose-only effect; inactive = no such curve, though single readings can be large or run the other way. The list shows a part of the results.
# Target: Galactocerebrosidase (Homo sapiens) (UniProt P54803)
# Sequence of UniProt P54803 (P54803 whole entry, looked up): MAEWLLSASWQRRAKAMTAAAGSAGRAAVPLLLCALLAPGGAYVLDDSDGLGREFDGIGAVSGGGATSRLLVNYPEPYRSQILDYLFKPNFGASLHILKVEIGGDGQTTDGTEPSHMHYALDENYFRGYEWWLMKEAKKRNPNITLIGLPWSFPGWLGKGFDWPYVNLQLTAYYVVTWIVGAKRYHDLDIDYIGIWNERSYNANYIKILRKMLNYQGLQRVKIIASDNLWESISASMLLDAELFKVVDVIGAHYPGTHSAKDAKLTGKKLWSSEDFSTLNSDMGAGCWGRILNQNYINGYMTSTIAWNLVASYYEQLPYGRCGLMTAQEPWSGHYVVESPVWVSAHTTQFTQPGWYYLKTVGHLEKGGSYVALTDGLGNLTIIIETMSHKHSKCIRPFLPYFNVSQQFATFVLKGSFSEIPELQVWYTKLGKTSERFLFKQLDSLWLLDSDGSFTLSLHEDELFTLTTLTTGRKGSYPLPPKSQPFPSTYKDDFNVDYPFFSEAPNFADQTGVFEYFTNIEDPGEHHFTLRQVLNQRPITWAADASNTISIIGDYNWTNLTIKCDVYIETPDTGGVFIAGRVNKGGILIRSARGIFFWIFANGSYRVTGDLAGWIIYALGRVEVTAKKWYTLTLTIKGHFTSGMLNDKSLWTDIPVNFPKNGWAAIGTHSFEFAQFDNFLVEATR
# Assay: A Novel Cell-Based Assay to Identify Small Molecules for B -Galactocerebrosidase; also: 0% is about no effect; nearly all actives have a fitted effect of over 65% in size
# Details: 145M-Twi-hGALC-G270D cells (Twitcher mouse brain line with human GALC G270D), HMU-beta-Gal fluorescence, 48 h; series mostly up to 57.5 µM; activation: at the top concentration
# Method in brief: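 Brain-derived Twitcher mouse 145M-Twi cells stably expressing human GALC-G270D or wild-type GALC, treated live, then residual GALC activity read by fluorescence of HMU-b-Gal substrate (0.1 mM final) in citrate-phosphate buffer pH 5.2 with sodium taurocholate. Signal increase indicates enhancement.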
row,Compound,activation
1,O=C(O)c1cccnc1Nc1cccc(C(F)(F)F)c1,inactive: -11.6%
2,COc1ccccc1CNC(=O)C(C)n1c(=O)cc(C(F)(F)F)c2c(C)nn(C)c21 (stereo not given),inactive: -18.3%
3,Cc1cccc(NC(=O)CN2C(=O)CCc3ccccc32)c1C,inactive: -8.51%
4,CCOc1ccc(CCNC(=O)c2cnc3c(-c4ccccc4)c(C)nn3c2C)cc1OCC,inactive: -20.8%
5,CCc1ccc(CNC(=O)C2CCN(c3nnc(-n4c(C)ccc4C)s3)CC2)cc1,inactive: -36.1%
6,COc1ccc(N2CCN(c3oc(/C=C/c4cccc(OC)c4)nc3C#N)CC2)cc1,inactive: -15.3%
7,CCCCC(=O)Nc1ccc(OCc2cc(=O)n3ccc(C)cc3n2)cc1,inactive: -10.8%
8,O=c1[nH]c2cc(C(F)(F)F)c(N3CCOCC3)cc2n(CP(=O)(O)O)c1=O,inactive: -14.3%
9,COc1ccc(C(Cl)=C(c2ccc(OC)cc2)c2ccc(OC)cc2)cc1,inactive: -1.85%
10,CCCCN(CCCC)c1nc(-c2ccccc2)nc2ccccc12,inactive: 2.91%
11,COc1cc(C2CC(=O)Nc3cc4c(cc32)OCCO4)cc(OC)c1O (stereo not given),inactive: -5.29%
12,Nc1ccn(C2CO[C@H](CO)O2)c(=O)n1 (stereo not given in full),inactive: 5.69%
13,COc1ccc(NC(=O)C2CCCN2S(=O)(=O)c2ccc3c(c2)CCCC(=O)N3)cc1Cl (stereo not given),inactive: 1.67%
14,CCOC(=O)c1c(N)sc2c1CCN(Cc1ccccc1)C2,inactive: -5.24%
15,Cc1oc(-c2cccc(Cl)c2)nc1CSCC(=O)O,inactive: -19.1%
16,CCC(=O)Nc1ccc(C)cc1-c1nc2ccccc2n(Cc2ccccc2)c1=O,inactive: -4.84%
17,CCN(C(=O)c1cc2c(Cl)nc3ccc(C)cc3c2s1)c1cc(OC)ccc1OC,inactive: -10.5%
18,COc1ccccc1C(=O)Nc1c(C(=O)Nc2ccc(C)cc2)oc2ccccc12,inactive: 2.64%
19,CC(=O)Oc1ccc2c(c1)CC[C@@H]1[C@@H]2CC[C@]2(C)[C@@H](O)CC[C@@H]12,inactive: -12.6%
20,CC1(c2ccccc2)CC(C)(C)N(C(=O)c2ccccc2Cl)c2ccccc21 (stereo not given),inactive: -8.39%
21,O=C(Nc1ccc2nn(-c3ccc(Cl)cc3)nc2c1)c1cc2ccccc2o1,inactive: -10.7%
22,Cc1ccccc1Nc1c(-c2ccc(N3CCOCC3)cc2)nc2ccc(Cl)cn12,inactive: -10.1%
23,Cc1ccccc1NC(=O)c1c(NC(=O)c2cccs2)sc2c1CCC(C)C2 (stereo not given),inactive: -6.09%
24,N#Cc1nc(/C=C/c2ccc(F)cc2)oc1NC1CCCCC1,inactive: -0.726%
25,COc1ccc(C(=O)NCC(c2ccco2)S(=O)(=O)c2cccs2)cc1 (stereo not given),inactive: -18.3%

row,Compound,activation
1,Cc1cccc(NC(=O)c2c(N)sc3c2CCC(C)C3)c1 (stereo not given),inactive: -19.2%
2,CCc1cccc(C)c1NS(=O)(=O)c1ccc(-c2cc(C)no2)s1,inactive: -11.9%
3,COc1ccc(-c2cccc(NS(=O)(=O)c3cc(C)ccc3OC)c2)nn1,inactive: -44.2%
4,Cc1c(F)cc2c(=O)c(C(=O)O)cn3c2c1CCC3C (stereo not given),inactive: -22.3%
5,CCOC(=O)c1cc(-c2ccccc2)n(CCC(=O)NCCc2ccc(OC)c(OC)c2)c1C,inactive: -13%
6,COc1ccc(-c2nc3cc(NC(=O)c4cc5ccccc5o4)ccc3o2)cc1,inactive: -9.7%
7,COc1ccc(N(C)C(=O)C2CCN(S(=O)(=O)c3cc(Br)cc4c3N(C(C)=O)CC4)CC2)cc1,inactive: 8.46%
8,Cc1ccc(OCc2cc(=O)n3ccsc3n2)c(NC(=O)c2ccco2)c1,inactive: 2.69%
9,Cc1cccc(OCC(=O)Nc2ccccc2OCc2cc(=O)n3cc(C)ccc3n2)c1,inactive: 1.8%
10,O=C(Nc1ccc2nc(SCC(=O)N3CCOCC3)sc2c1)c1ccccc1Cl,inactive: -1.42%
11,CCn1ccc2cc(S(=O)(=O)N3CCC(C(=O)NCc4ccc(F)cc4)CC3)ccc21,inactive: -10.1%
12,Cc1ccc(NCc2cccn2-c2nnc(N3CCC(C(=O)NCc4ccc(F)cc4)CC3)s2)cc1,inactive: -30.3%
13,Cc1ccn2c(Nc3ccccc3C)c(-c3ccccc3)nc2c1,inactive: -7.63%
14,COc1cccc(NC(=O)Cn2c(=O)n(Cc3ccco3)c(=O)c3cc(OC)c(OC)cc32)c1,inactive: -12.4%
15,O=C(Cn1c(=O)n2nc(-c3cccc(F)c3)nc2c2ccccc21)NCc1ccc(Cl)cc1,inactive: -11.2%
16,CN(C)c1ccc(CNC(=O)c2sc3ncccc3c2-n2cccc2)cc1,inactive: -30.7%
17,CC1CCN(c2nc(-c3ccc(Br)cc3)nc3ccccc23)CC1,inactive: -16.4%
18,Cc1cc(C)cc(NC(=O)CCN2C(=O)c3ccccc3Sc3ncccc32)c1,inactive: 8.79%
19,COc1ccccc1CNC(=O)CS(=O)(=O)Cc1nc(-c2ccccc2C)oc1C,inactive: -3.59%
20,CSc1ccc(CNC(=O)Cn2ccc3cc(S(=O)(=O)N4CCCC4)ccc32)cc1,inactive: -7.39%
21,CC(C)CCNC(=O)CSc1nc2ccccc2nc1Cc1ccc(Cl)cc1,inactive: -18%
22,CN(C)c1ccc(C(=O)NCc2ccc3c(c2)CCN3C(=O)c2ccccc2)cc1,inactive: -13.5%
23,COc1cccc(CNC(=O)CN2C(=O)CSc3ccc(S(=O)(=O)N4CCCC4)cc32)c1,inactive: -19.8%
24,COCCn1c(C)cc(O)c(C(c2ccc(Cl)cc2)N2CCCCC2)c1=O (stereo not given),inactive: -24.7%
25,Cc1cc(C)c(NC(=O)CN2C(=O)CCSc3ccc(S(=O)(=O)N4CCCC4)cc32)c(C)c1,inactive: -27.3%
